Source: PubChem BioAssay AID504339 (National Center for Advancing Translational Sciences (NCATS), 2011)
Hit rate of the full screen: of about 390,000 compounds, about 17,000 (4.4%) were called active. This list was built around the results that the source calls inconclusive (neither active nor inactive); the mix of calls is not that of the screen. Calls follow the shape of the dose curve; as a rule, active = well fitted inhibition curve with a large enough effect; inconclusive = small, poorly fitted or top-dose-only effect; inactive = no such curve, though single readings can be large or run the other way. A potency beside an inconclusive call is a rough fit, not a confirmed value.
Also: nearly all actives have a fitted effect of over 50% in size.
Potency is read from the fitted curve at half-maximal effect; tags tell the direction and shape of the fitted curve.

Each compound was assayed against Lysine-specific demethylase 4A (Homo sapiens) (UniProt O75164) (assay: qHTS Assay for Inhibitors of JMJD2A-Tudor Domain). Settings: AlphaScreen JMJD2A-Tudor / H3K4me3 peptide binding; series mostly up to 114 µM.
Chain of UniProt O75164 (O75164 whole entry, looked up, the tested form may be a part): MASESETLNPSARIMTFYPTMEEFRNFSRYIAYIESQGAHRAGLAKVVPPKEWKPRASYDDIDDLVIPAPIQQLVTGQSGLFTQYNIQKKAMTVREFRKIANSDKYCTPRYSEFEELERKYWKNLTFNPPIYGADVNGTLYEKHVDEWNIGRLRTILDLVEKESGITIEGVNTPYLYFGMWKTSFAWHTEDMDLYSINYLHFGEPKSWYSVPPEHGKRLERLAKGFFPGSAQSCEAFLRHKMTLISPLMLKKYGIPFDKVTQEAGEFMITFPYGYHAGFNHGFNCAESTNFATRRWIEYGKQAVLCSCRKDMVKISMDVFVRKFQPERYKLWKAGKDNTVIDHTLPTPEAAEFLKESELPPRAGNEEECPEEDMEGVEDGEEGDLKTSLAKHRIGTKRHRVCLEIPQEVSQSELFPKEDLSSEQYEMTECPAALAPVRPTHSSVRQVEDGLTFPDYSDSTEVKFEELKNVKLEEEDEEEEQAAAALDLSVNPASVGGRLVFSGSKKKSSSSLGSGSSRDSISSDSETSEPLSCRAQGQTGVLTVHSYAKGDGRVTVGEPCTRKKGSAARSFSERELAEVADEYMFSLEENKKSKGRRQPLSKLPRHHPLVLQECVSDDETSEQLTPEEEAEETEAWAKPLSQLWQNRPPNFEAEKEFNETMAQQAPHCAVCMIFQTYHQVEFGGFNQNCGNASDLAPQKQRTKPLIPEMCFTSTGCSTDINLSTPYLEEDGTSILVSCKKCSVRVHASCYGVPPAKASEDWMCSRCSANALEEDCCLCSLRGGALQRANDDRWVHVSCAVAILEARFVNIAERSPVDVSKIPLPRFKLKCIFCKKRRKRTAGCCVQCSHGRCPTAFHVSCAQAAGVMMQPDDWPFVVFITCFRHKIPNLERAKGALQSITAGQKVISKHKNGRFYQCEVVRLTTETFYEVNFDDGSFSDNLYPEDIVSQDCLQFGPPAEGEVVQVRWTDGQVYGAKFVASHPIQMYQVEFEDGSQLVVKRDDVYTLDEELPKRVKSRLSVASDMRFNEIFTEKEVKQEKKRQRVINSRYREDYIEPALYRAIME
`O=C(Nc1nc(-c2cccc([N+](=O)[O-])c2)cs1)C(c1ccccc1)c1ccccc1` was tested, and the Potency was inconclusive: 35.5 µM [inhibitor, partial curve].
For `S=c1[nH]nc(-c2ccco2)n1/N=C/c1ccc(Cl)cc1`, the Potency was active: 39.8 µM.
With `S=c1[nH]nc(-c2cccnc2)n1Cc1ccccc1` the Potency was active: 8.91 µM.
`Cc1ccc2c(=O)cc(C(=O)Nc3sc4c(c3C(=O)NCc3ccco3)CCCC4)oc2c1C` was tested, and the Potency was inconclusive: 56.2 µM [inhibitor, partial curve].
In the case of `O=C(O)c1ccc(N/N=C/c2ccc(-c3cc(Cl)ccc3Cl)o2)cc1`, the Potency is reported as active: 39.8 µM.
In the case of `CC(=O)CSc1nc(-c2ccccc2)[nH]c1S(=O)(=O)c1ccc(C)cc1`, the Potency is reported as “inactive”.
`N#C/C(=C/c1ccc(N2CCCCC2)cc1)c1cccc(F)c1` was tested, and the Potency was inconclusive: 14.1 µM [inhibitor, full curve].
For `CCn1cc(C(=O)N2CCN(c3ccccc3)CC2)c(=O)c2cc(S(=O)(=O)N(C)C3CCCCC3)ccc21`, the Potency was inconclusive: 50.1 µM [inhibitor, partial curve].
For `CCc1nnc2n1N=C(c1ccc(OC)cc1)CS2`, the Potency was “inactive”.
For `COc1cc(OC)c(NC2=CC(=O)C(=O)c3ccccc32)cc1Cl`, the Potency was inconclusive: 39.8 µM [inhibitor, partial curve].
`Cc1ccc(S(=O)(=O)NCC(=O)N2CCC(C)CC2)cc1` was tested, and the Potency was inconclusive: 11.2 µM [inhibitor, full curve, poor fit].
With `Cc1ccc(NC(=O)c2ccc3c(c2)CCN3S(C)(=O)=O)cc1C` the Potency was active: 15.8 µM.
With `Cc1ccc(-c2c(CN3CCN(c4cc(Cl)ccc4C)CC3)csc2C)cc1` the Potency was “inactive”.
`CCn1c(C)cs/c1=N\C(=S)Nc1ccccc1C` was tested, and the Potency was inconclusive: 63.1 µM [inhibitor, single point].
`CCOc1cc(C2/C(=C(\O)c3cc(C)ccc3C)C(=O)C(=O)N2CCN(C)C)ccc1O` (stereo unspecified) was tested, and the Potency was inconclusive: 89.1 µM [inhibitor, single point].
For `Nc1cc2c(cc1Br)-c1ccccc1C2=NO`, the Potency was inconclusive: 56.2 µM [inhibitor, partial curve].
For `COc1cc(O)cc(O)c1C(=O)/C=C/c1ccccc1`, the Potency was inconclusive: 44.7 µM [inhibitor, partial curve].
In the case of `Cc1ccc2nc(Cl)c(C3CC(c4cccs4)=NN3C(=O)CCCC(=O)O)cc2c1` (stereo unspecified), the Potency is reported as inconclusive: 70.8 µM [inhibitor, single point].
For `CCn1c(SCC(=O)NC(C)(C)C)nc(O)cc1=O`, the Potency was inconclusive: 89.1 µM [inhibitor, single point].
In the case of `CC1CCN(c2c(NCc3ccc(C(=O)NCc4ccco4)cc3)c(=O)c2=O)CC1`, the Potency is reported as inconclusive: 50.1 µM [inhibitor, partial curve].
With `O=C(NC(=S)Nc1ccc(CN2CCOCC2)cc1)c1cccc([N+](=O)[O-])c1` the Potency was “inactive”.
With `COc1ccc(/C=C\c2nc(=O)c3ccccc3o2)cc1` the Potency was inconclusive: 79.4 µM [inhibitor, single point].
For `COc1ccccc1Nc1nnc(SCC(=O)N2CCCC2=O)s1`, the Potency was “inactive”.
With `Cc1cc(NC(=O)C(Cl)c2ccccc2)no1` (stereo unspecified) the Potency was “inactive”.
In the case of `O=C(CN1C(=O)c2cccc([N+](=O)[O-])c2C1=O)OCC(=O)N1CCCCC1`, the Potency is reported as “inactive”.
With `C=CCOc1ccc(C2/C(=C(\O)c3ccc4c(c3)OCCO4)C(=O)C(=O)N2CCCN2CCOCC2)cc1` (stereo unspecified) the Potency was “inactive”.
With `Cc1cc(/C=C2\SC(=O)N(C)C2=O)c(C)n1-c1ccc(O)cc1` the Potency was inconclusive: 50.1 µM [inhibitor, partial curve].
With `COc1cc(Nc2nc(-c3ccccc3)c3cc(C)ccc3n2)cc(OC)c1OC` the Potency was inconclusive: 28.2 µM [inhibitor, partial curve].
`Cc1ccc(C)c(-n2sc3ccc(F)cc3c2=O)c1` was tested, and the Potency was active: 14.1 µM.
`COc1ccc2oc(=O)c(C(=O)NCCc3c(C)[nH]c4c(C)cccc34)cc2c1` was tested, and the Potency was inconclusive: 14.1 µM [inhibitor, full curve].
With `Cc1ccccc1C(=O)Nc1ccc(NC(=O)c2cccs2)cc1` the Potency was “inactive”.
`Cc1nc(-c2ccc(-n3nncc3-c3ccco3)cc2)cs1` was tested, and the Potency was inconclusive: 50.1 µM [inhibitor, partial curve].
With `O=C(CSc1ncc(-c2ccc(F)cc2)[nH]1)Nc1cccc(O)c1` the Potency was inconclusive: 63.1 µM [inhibitor, partial curve, poor fit].
In the case of `CCOc1ccc(CCNC(=O)C2CCCN(c3nnc(C)c4c(C)n(-c5ccccc5)nc34)C2)cc1` (stereo unspecified), the Potency is reported as “inactive”.
With `CCC(C)c1ccc(NC(=O)Nc2cccnc2)cc1` (stereo unspecified) the Potency was “inactive”.
`NC(=O)c1c(NC(=O)c2noc3c2CCCC3)sc2c1CCCC2` was tested, and the Potency was active: 79.4 µM.
With `CCN1CCCc2cc(CN(CCN3CCOCC3)C(=S)Nc3cccc(OC)c3)ccc21` the Potency was active: 50.1 µM.
For `CC(C)(C)OC1NS(=O)(=O)OCC1NCOC(Cl)(Cl)Cl` (stereo unspecified), the Potency was active: 79.4 µM.
`O=c1c(C(c2ccc(O)cc2)c2c(O)nc3n(c2=O)CCCS3)c(O)nc2n1CCCS2` was tested, and the Potency was inconclusive: 89.1 µM [inhibitor, single point].
`CS(=O)(=O)c1ccccc1-c1csc(N2CCC(C(N)=O)CC2)n1` was tested, and the Potency was inconclusive: 56.2 µM [inhibitor, partial curve].
In the case of `O=C(N/N=C/c1ccc([N+](=O)[O-])o1)c1cc(-c2cccc(Br)c2)nc2ccccc12`, the Potency is reported as inconclusive: 44.7 µM [inhibitor, partial curve].
In the case of `COc1ccccc1OCC(=O)Nc1ccc2c(c1)OCO2`, the Potency is reported as inconclusive: 50.1 µM [inhibitor, partial curve].
With `CN1C[C@@H]2C(c3ccc(Cl)nc3)C3(c4ccccc4)CC2(C3)[C@H]1c1ccccc1` (stereo partly specified) the Potency was inconclusive: 56.2 µM [inhibitor, partial curve].
For `Cc1ccc(O)c(NC(=O)/C=C/C(=O)O)c1`, the Potency was inconclusive: 39.8 µM [inhibitor, single point].
`Cc1ccc(SCCC(=O)Nc2nccs2)cc1` was tested, and the Potency was inconclusive: 3.98 µM [inhibitor, partial curve, poor fit].
With `CN(C)c1ccc(C(=S)N2CCN(C(=S)Nc3ccc(Cl)cc3)CC2)cc1` the Potency was active: 28.2 µM.
